# Measured values taken from the supplement of paper PMC4166925.
# ± gives the standard deviation of the averaged measurements. In all, about 33,000 sequences were measured (“E-score (dimensionless, -0.5 to 0.5)”: median about -0.046, highest 2% from about 0.36 on). The list shows a part of the results.
# Test system: T1, SpTbr T-box DNA-binding domain (GST fusion)
# T1 sequence: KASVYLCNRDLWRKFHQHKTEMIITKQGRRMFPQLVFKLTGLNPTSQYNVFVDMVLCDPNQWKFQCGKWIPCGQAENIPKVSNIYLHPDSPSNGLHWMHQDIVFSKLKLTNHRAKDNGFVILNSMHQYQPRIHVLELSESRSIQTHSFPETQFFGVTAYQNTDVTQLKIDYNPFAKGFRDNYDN
# Test: PBM E-score of 8-mer (E-score (dimensionless, -0.5 to 0.5)); Tbr is Tbrain of the sea star Patiria miniata (Pm) or the sea urchin Strongylocentrotus purpuratus (Sp); higher = stronger binding preference; most listed sequences are background and not binding sites
# Conditions: the construct has about 5 more residues each side
# Outline: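 Using the Universal PBM Analysis Suite, every ungapped 8-mer received an enrichment E-score averaged over duplicate arrays. Probe intensities came from double-stranded Universal Agilent oligonucleotide arrays incubated with 200 nM GST-fused Tbr T-box DNA-binding domain in PBS (pH 7.5). That protein was expressed in BL21 E. coli at 20 °C and purified by glutathione affinity chromatography.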
row,Sequence,PBM E-score of 8-mer
1,CACGTATG,0.164 ± 0.0055
2,CGGAATCA,-0.103 ± 0.064
3,GGCCTTCA,-0.0525 ± 0.033
4,AAATGGAG,-0.0892 ± 0.0065
5,CGTACCGC,0.011 ± 0.031
6,ACACGGGA,-0.0309 ± 0.016
7,AACCGACA,0.151 ± 0.061
8,CAATTTGG,-0.0877 ± 0.012
9,GCTTGTCA,0.12044 ± 2.8e-05
10,CTCCCACA,0.111 ± 0.079
11,AGCCTACC,-0.245 ± 0.012
12,CGTGTCGA,0.264 ± 0.013
13,GCAATAAA,-0.0966 ± 0.036
14,AATATACG,-0.167 ± 0.12
15,CATAACTC,-0.179 ± 0.0028
16,CAGGCAAC,-0.0575 ± 0.088
17,ATAAATTC,-0.0229 ± 0.07
18,AACAAGGT,0.271 ± 0.009
19,AAGTCTAC,0.0745 ± 0.011
20,CCGCACTC,0.108 ± 0.012
21,CGCATATC,-0.0822 ± 0.013
22,CAGGCTAC,-0.221 ± 0.014

row,Sequence,PBM E-score of 8-mer
1,CTGGTCAC,0.23 ± 0.0071
2,GCCCCAGA,0.00354 ± 0.036
3,CCACACCC,0.414 ± 0.024
4,CATGATCG,-0.0549 ± 0.084
5,TACTCCCA,-0.178 ± 0.016
6,ACCGGACA,-0.114 ± 0.033
7,CGGCTAGA,-0.0792 ± 0.016
8,CAAAGCCC,-0.264 ± 0.033
9,AGGAGTTG,0.224 ± 0.013
10,ACGTGGAC,-0.0195 ± 0.032
11,AAGCATAT,-0.0864 ± 0.031
12,AACCTTCA,-0.0641 ± 0.013
13,AAGATACT,-0.301 ± 0.035
14,AATGTGGC,0.219 ± 0.02
15,ACCCTCAG,-0.0635 ± 0.019
16,GCGAGCGA,0.187 ± 0.061
17,ATCGCATG,0.0472 ± 0.044
18,ATAATGTG,0.24 ± 0.09
19,CGTATAAG,-0.104 ± 0.021
20,ATCTGACG,0.0261 ± 0.029
21,ACGACAGC,0.0353 ± 0.031
22,AATAGATT,-0.154 ± 0.049

row,Sequence,PBM E-score of 8-mer
1,CGATTAAG,-0.0402 ± 0.044
2,CACCCTAG,0.189 ± 0.083
3,ATCCAGAC,-0.107 ± 0.045
4,GCACCAAA,0.0453 ± 0.016
5,CTTAGTAC,-0.196 ± 0.031
6,AGAGGTGA,0.298 ± 0.023
7,AGTTAATC,-0.105 ± 0.081
8,AGTCAACG,0.0156 ± 0.056
9,ATGGAACG,-0.2064 ± 0.0019
10,GAAAACAC,0.217 ± 0.014
11,AGTTGCGG,0.126 ± 0.029
12,ACGCCCTA,0.141 ± 0.043
13,AGCCGTGA,0.29 ± 0.0074
14,ACAGTTAA,0.179 ± 0.066
15,ACGGGAGG,-0.125 ± 0.036
16,CAACGAAA,0.0103 ± 0.014
17,GTTAATCA,0.161 ± 0.046
18,ATTAGGAC,-0.126 ± 0.026
19,TCTTACAA,-0.309 ± 0.041
20,GTGTTCCA,0.125 ± 0.037
21,CCAAGTTC,-0.00426 ± 0.02
22,CGGCCCTA,-0.211 ± 0.0076

row,Sequence,PBM E-score of 8-mer
1,GCACCAGC,0.141 ± 0.052
2,GTAAACTA,-0.0769 ± 0.084
3,GCCGCTCA,-0.0198 ± 0.02
4,GTCACCTA,0.392 ± 0.017
5,GTCAGTCA,-0.0606 ± 0.066
6,CTGTATAC,0.0873 ± 0.038
7,ACTTAATC,-0.0449 ± 0.025
8,ACGATTGC,0.116 ± 0.027
9,GGCATCAC,0.281 ± 0.006
10,GGTATCAC,0.2483 ± 0.00035
11,GTACAGCA,-0.0888 ± 0.017
12,ATACACAT,0.0774 ± 0.0097
13,ACAGATAC,-0.11 ± 0.068
14,AGGTTTTC,-0.125 ± 0.03
15,AGCCTAGG,-0.0802 ± 0.019
16,AATTCGGT,-0.223 ± 0.018
17,ACCTTAAA,-0.103 ± 0.071
18,GACGGTTA,0.0394 ± 0.071
19,GAATAATA,-0.2 ± 0.017
20,ACAAGGAT,-0.118 ± 0.021
